In all, about 110,000 compounds went through this assay and about 230 (0.21%) showed an effect of 50% or more. Some of the results follow.
These molecules were tested against DPAP1 (Plasmodium falciparum, UniProt Q8IIJ9) (assay: primary screen, percent inhibition; read by cleavage of a fluorogenic dipeptide substrate; higher = more effect of the substance).
Parameters: species or system P. falciparum D10 trophozoite lysates; single well
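Further: 30 min substrate incubation versus DMSO and 10 µM JCP410 controls.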

Sequence of DPAP1 (Q8IIJ9 whole entry, looked up): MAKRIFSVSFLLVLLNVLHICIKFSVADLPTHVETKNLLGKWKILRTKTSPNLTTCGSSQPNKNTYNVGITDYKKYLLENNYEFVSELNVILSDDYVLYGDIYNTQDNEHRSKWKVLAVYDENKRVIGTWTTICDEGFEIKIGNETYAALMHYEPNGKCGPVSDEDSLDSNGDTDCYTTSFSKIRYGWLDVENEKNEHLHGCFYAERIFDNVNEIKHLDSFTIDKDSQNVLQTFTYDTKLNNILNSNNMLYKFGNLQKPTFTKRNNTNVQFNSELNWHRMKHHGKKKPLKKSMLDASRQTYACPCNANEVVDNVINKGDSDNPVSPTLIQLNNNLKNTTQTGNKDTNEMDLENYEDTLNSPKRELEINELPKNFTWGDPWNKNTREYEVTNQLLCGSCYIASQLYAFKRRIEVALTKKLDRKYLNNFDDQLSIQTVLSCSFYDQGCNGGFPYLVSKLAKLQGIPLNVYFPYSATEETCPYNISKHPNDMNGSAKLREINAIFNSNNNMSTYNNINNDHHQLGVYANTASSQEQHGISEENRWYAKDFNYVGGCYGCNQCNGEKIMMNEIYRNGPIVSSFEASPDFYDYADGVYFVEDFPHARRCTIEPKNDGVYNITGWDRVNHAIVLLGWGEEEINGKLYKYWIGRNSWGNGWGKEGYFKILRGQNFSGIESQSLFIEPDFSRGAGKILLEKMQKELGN

Going from `N=C1/C(=C/c2cccn2CCCOc2ccccc2)C(=O)N=C2SC=C(c3ccccc3)N12` to `CCCNC1=N/C(=C\c2ccccc2)C(=O)N1c1ccc(C)cc1`, the “% Inhibition @ 10 uM” value rises from -3.51% to -1.22%.

Compared with `COCCNc1ncnc2c1cnn2Cc1ccc(Cl)cc1`, `Cc1c(C(=O)NCc2ccco2)oc2c1-c1nn(Cc3ccc(Cl)cc3)cc1CC2` is higher in “% Inhibition @ 10 uM” value: 3.21% for the first, 8.36% for the second.

Going from `NC(=O)NC(c1ccccc1)c1ccccc1Br` (centres unmarked) to `CC(NC(=O)CSc1nc2ccccc2[nH]1)c1ccccc1` (centres unmarked), the “% Inhibition @ 10 uM” value rises from -1.5% to 4.1%.

Going from `CCOc1ccccc1CNCc1c(C(=O)O)n(Cc2ccc(F)cc2)c2ccccc12` to `COC(=O)C1=CN(Cc2ccc(F)cc2)C=C(C(=O)OC)C1c1cccc(Oc2ccccc2)c1`, the “% Inhibition @ 10 uM” value rises from -1.97% to -1.48%.

Compared with `CCCN1C(=O)[C@@H]2[C@H](C1=O)[C@H](C(=O)c1ccc(Cl)cc1)N1C=Cc3ccccc3[C@@H]21`, `O=C1CCC(c2ccccc2)N1C(=O)c1ccc(Cl)cc1` (centres unmarked) is higher in “% Inhibition @ 10 uM” value: 2.95% for the first, 3.85% for the second.

Compared with `CC(C)(C)c1cc(/C=N/O)c(C(C)(C)C)s1`, `CCOC(=O)/C(C#N)=C\c1c(C)c(C)cc(C)c1C` is lower in “% Inhibition @ 10 uM” value: 3.25% for the first, -2.51% for the second.

Compared with `C=CCn1c(SCC)nc(O)cc1=O`, `C=CCc1cccc2cc(C(=O)N(CC)CC)c(=O)oc12` is higher in “% Inhibition @ 10 uM” value: -0.856% for the first, -0.268% for the second.

Compared with `CS(=O)(=O)N(CC(=O)Nc1cc(Cl)ccc1Oc1ccccc1)c1ccccc1`, `COc1ccccc1N(CC(=O)Nc1cc(C)ccc1C)S(=O)(=O)c1ccccc1` is lower in “% Inhibition @ 10 uM” value: -0.318% for the first, -3.25% for the second.

Compared with `CC1CCCCN1c1nc2ccccc2n2nnnc12` (centres unmarked), `CCC1CCCCN1C(=O)c1sc2nc(-c3ccccc3)cn2c1C` (centres unmarked) is lower in “% Inhibition @ 10 uM” value: -0.522% for the first, -3.7% for the second.

Compared with `COC(=O)c1cc(S(=O)(=O)NCCc2ccco2)cn1C`, `Cc1cc(C)c(S(=O)(=O)NCC(=O)Nc2ccc(F)cc2)c(C)c1` is higher in “% Inhibition @ 10 uM” value: 0.224% for the first, 1.94% for the second.

Compared with `COc1ccc(C2CC(C(F)(F)F)n3ncc(C(=O)N(C)Cc4ccccc4)c3N2)cc1` (centres unmarked), `CC(C)(C)NC(=O)c1nn2c(c1Cl)NC(c1ccccc1)CC2C(F)(F)F` (centres unmarked) is higher in “% Inhibition @ 10 uM” value: -7.02% for the first, -0.996% for the second.

First: N#C/C(=C\c1c(Oc2ccccc2)nc2ccccn2c1=O)C(=O)NC1CCS(=O)(=O)C1 (centres unmarked)
Second: N#C/C(=C\c1c(Oc2ccccc2Cl)nc2ccccn2c1=O)c1nc2ccccc2[nH]1
The “% Inhibition @ 10 uM” value of the first is higher: 8.51% for the first, -1.86% for the second.

Going from `CCC(C)OC(=O)C1=C(C)NC(=O)CC1c1ccccc1Br` (centres unmarked) to `CCOC(=O)C1=C(C)NC(=O)NC1c1cccc(F)c1` (centres unmarked), the “% Inhibition @ 10 uM” value falls from 13.2% to 1.13%.

Going from `CCCCCC(=O)Nc1ccc(N2CCOCC2)c(Cl)c1` to `O=C(NCCN1CCOCC1)c1cc2c(s1)-c1ccccc1OC2`, the “% Inhibition @ 10 uM” value rises from -0.25% to 0.291%.

First: CN(CCCn1cnc2c3ccccc3nc-2c1O)C1CCCCC1
Second: O=C(CSc1ccccc1)Nc1ccc2c(c1)C(=O)N(C1CCCCC1)C2=O
The “% Inhibition @ 10 uM” value of the first is lower: 3.24% for the first, 5.43% for the second.

Going from `CCOC(=O)c1ccc2nc(C(F)(F)F)nc(N3CCc4ccccc4C3)c2c1` to `O=S(=O)(c1ccc2ccccc2c1)N1CCN(c2ncnc3sc4c(c23)CCCC4)CC1`, the “% Inhibition @ 10 uM” value rises from -2.91% to 3.47%.

Compared with `OCCSc1c(O)nc2ccc(Cl)cc2c1-c1ccccc1`, `O=C(O)/C=C/c1ccc2c(-c3ccccc3)onc2c1` is lower in “% Inhibition @ 10 uM” value: 6.51% for the first, -7.35% for the second.

Compared with `COc1ccc(/C=C/C(=O)Nc2nc3ccc(S(C)(=O)=O)cc3s2)cc1Br`, `CC1=CC(C)(C)NC(=S)N1c1cccc(C(=O)/C=C/c2ccc(Cl)cc2Cl)c1` is lower in “% Inhibition @ 10 uM” value: 3.39% for the first, 2.22% for the second.

First: COc1ccc(C=O)cc1Cn1cccc1C1=NC(c2ccccc2)CO1 (centres unmarked)
Second: N#Cc1ccccc1Oc1nc(Cl)cn(-c2ccccc2)c1=O
The “% Inhibition @ 10 uM” value of the first is lower: 0.163% for the first, 3.05% for the second.

First: Cc1cc(NC(=O)c2ccc(NC(=O)C(C)Oc3ccccc3)cc2)no1 (centres unmarked)
Second: O=C(COc1ccc(Br)cc1)NC(Cc1ccccc1)C(=O)O (centres unmarked)
The “% Inhibition @ 10 uM” value of the first is higher: -5.6% for the first, -8.12% for the second.

Compared with `CC(C)OCCCNC(=O)CN1CCN(Cc2ccccc2Cl)C1=O`, `CCN(CC)CCCNC(=O)CSc1nc2nc(C)c(Cc3ccccc3Cl)c(C)n2n1` is higher in “% Inhibition @ 10 uM” value: -0.148% for the first, 0.813% for the second.

Going from `COc1ccc2c(C)c(CC(=O)NCc3ccc4c(c3)OCO4)c(=O)oc2c1OC` to `COC(=O)c1ccc(-c2nc(-c3ccc4c(c3)OCO4)no2)cc1`, the “% Inhibition @ 10 uM” value rises from 4.13% to 4.31%.

Going from `Cc1oc(C23CC4CC(CC(C4)C2)C3)cc1C(=O)NCc1ccccc1` to `O=C1C=C(NCCc2ccccc2)CC(c2ccco2)C1` (centres unmarked), the “% Inhibition @ 10 uM” value falls from -1.24% to -2.87%.

Compared with `CCc1ccc(CNC(=O)C2CC(=O)N(C3CCCC3)C2)cc1` (centres unmarked), `CC(=O)Nc1ccc(NC(=O)C2CCCC2)cc1` is higher in “% Inhibition @ 10 uM” value: -1.21% for the first, 2.27% for the second.

Going from `CCOc1ccccc1NC(=O)COc1ccc(C)cc1C` to `Cc1ccccc1C(=O)Nc1ccccc1C(C)C`, the “% Inhibition @ 10 uM” value rises from -6.05% to -2.35%.

First: Cn1c(SCc2ccccc2)nc2ccccc2c1=O
Second: N#Cc1ccccc1CSc1nc2ccsc2c(=O)n1Cc1ccccn1
The “% Inhibition @ 10 uM” value of the first is lower: -9.7% for the first, -1.5% for the second.

Going from `CC1CCN(c2ccc([N+](=O)[O-])cn2)CC1` to `CC1(C)Cc2c(cnn2-c2ccc([N+](=O)[O-])cc2)-c2[nH]c3ccccc3c21`, the “% Inhibition @ 10 uM” value rises from -5.2% to 18.6%.

Compared with `O=c1c(CN2CCCC2CO)coc2ccc(Cl)cc12` (centres unmarked), `Cc1ccc(Cn2c(CN3CCCCC3C)nc3c2c(=O)n(C)c(=O)n3C)cc1` (centres unmarked) is higher in “% Inhibition @ 10 uM” value: -3.15% for the first, 2.9% for the second.

Compared with `O=C(CN1C(=O)c2cccc3cccc1c23)NC1CC1`, `COc1ccc(-c2cc(C(=O)NC3CCCC3)no2)cc1` is lower in “% Inhibition @ 10 uM” value: 1.92% for the first, -8.55% for the second.

Going from `O=C(NC1CCCCCC1)C1CCC(CNS(=O)(=O)c2ccccc2)CC1` (centres unmarked) to `c1ccc(CCN2CCC(NC3CCCCCCC3)CC2)cc1`, the “% Inhibition @ 10 uM” value rises from -4.76% to -1.15%.

Compared with `COc1ccc(OC)c(-c2cc(C(=O)N3N=C(C(F)F)CC3(O)C(F)F)c3ccccc3n2)c1` (centres unmarked), `COc1ccc(CCNCc2c(C(=O)O)[nH]c3ccccc23)cc1OC` is lower in “% Inhibition @ 10 uM” value: 3.72% for the first, -5.05% for the second.

Going from `O=C(CCc1nc2ccccc2s1)c1ccc(F)cc1` to `Cc1ccc(C2=NN(C(=O)CCC(=O)O)C(c3ccc(F)cc3)C2)cc1` (centres unmarked), the “% Inhibition @ 10 uM” value falls from 2.57% to -3.76%.

Compared with `CN(C)/C=C/C=C1\CCc2ccccc2C1=O`, `COc1ccc2c(c1)CC/C(=C\c1cc(Br)cs1)C2=O` is lower in “% Inhibition @ 10 uM” value: 10.7% for the first, -0.503% for the second.

First: CCOc1ccc(C(C)NC(=O)CCC(=O)O)cc1 (centres unmarked)
Second: O=C(O)CCC(=O)N1CCN(C(c2ccccc2)c2ccccc2)CC1
The “% Inhibition @ 10 uM” value of the first is higher: 20.2% for the first, -0.95% for the second.

Compared with `CCOC(=O)c1c(Cc2cccc(Cl)c2)c[nH]c1C`, `Cc1cccc(OCC(=O)N2CCN(c3cccc(Cl)c3)CC2)c1C` is higher in “% Inhibition @ 10 uM” value: -5.4% for the first, -0.564% for the second.

Going from `O=C(C1CCC(CNS(=O)(=O)c2cccc3nsnc23)CC1)N1CCOCC1` (centres unmarked) to `Cn1c(=O)c2c(nc(N3CCOCC3)n2CCCNC2=NCCCCC2)n(C)c1=O`, the “% Inhibition @ 10 uM” value falls from 6.1% to 1.57%.

Going from `COc1ccc(CCNC(=O)Cn2cnc3c(nnn3Cc3ccc(F)cc3)c2=O)cc1OC` to `CCOc1ccc(-c2nc(CSCC(=O)NCCc3ccc(C)cc3)c(C)o2)cc1`, the “% Inhibition @ 10 uM” value falls from 5.74% to -0.971%.

First: COc1ccc(OC)c(CNc2cc(C)cc(C)c2)c1
Second: CCN(CC)Cc1c(O)ccc2occ(C(=O)c3cc(OC)ccc3OC)c12
The “% Inhibition @ 10 uM” value of the first is higher: 0.219% for the first, -7.75% for the second.

Compared with `CCOc1ccc(-n2c(SCC(N)=O)nc3sc4c(c3c2=O)CCCC4)cc1`, `CCOC(=O)c1c(O)nc2c(c1O)CCCC2` is lower in “% Inhibition @ 10 uM” value: -1.84% for the first, -4.16% for the second.

First: OC1(C#CCN(C2CCCCC2)C2CCCCC2)CCCCC1
Second: CN(C)CCNC(=O)Cn1cnc2c(nc3n2CCCCC3)c1=O
The “% Inhibition @ 10 uM” value of the first is lower: -0.128% for the first, 0.00353% for the second.

First: COC(=O)CSc1nc2ccc(N)cc2s1
Second: COc1cccc(C(=O)Nc2cccc(Cl)c2Cl)c1
The “% Inhibition @ 10 uM” value of the first is higher: 3.65% for the first, 2.09% for the second.

Compared with `CCC(C(=O)N1CCCC1)N1N=C(c2ccccc2)Oc2ccccc2C1=O` (centres unmarked), `O=C([C@@H](c1ccccc1)N1Cc2ccccc2C1=O)N1CCCC1` is lower in “% Inhibition @ 10 uM” value: -0.142% for the first, -4.1% for the second.

First: Cc1nn(C)cc1CN(C)C(=O)c1nn2c(c1Cl)NC(c1cccs1)CC2C(F)(F)F (centres unmarked)
Second: COc1ccc(C2CC(c3cccc(Br)c3)Nc3ncnn32)c(OC)c1OC (centres unmarked)
The “% Inhibition @ 10 uM” value of the first is lower: -0.988% for the first, 0.0842% for the second.

Going from `Fc1ccc(CN2CCN(c3ccccc3)CC2)cc1` to `Nc1ccn(Cc2ccccc2)n1`, the “% Inhibition @ 10 uM” value falls from -0.0404% to -1.24%.

Going from `Cc1cccc(NC(=O)c2ccncc2)c1C` to `Cc1ccc(S(=O)(=O)Nc2cccc(-c3csc(C)n3)c2)c(C)c1`, the “% Inhibition @ 10 uM” value falls from -3.65% to -6.64%.

Going from `O=C(O)CCCN1C(=O)C(O)=C(C(=O)c2ccc(Br)cc2)C1c1ccc(F)cc1` (centres unmarked) to `Brc1ccc(-n2nnnc2-c2nc3ccccc3[nH]2)cc1`, the “% Inhibition @ 10 uM” value falls from 0.755% to -3.53%.

Going from `Cc1ccc(-n2ncc(C(=O)NCCC(C)C)c2C2CCN(C(=O)OC(C)(C)C)CC2)cc1` to `CCN(CC)CCCNC(=O)CS(=O)(=O)Cc1nc(-c2cccc(OC)c2)oc1C`, the “% Inhibition @ 10 uM” value falls from 6.36% to -3.7%.

Compared with `CC1CN(C(C)(C)C)CCC1(O)c1ccccc1` (centres unmarked), `CC(C)C1OCC2Cc3ccccc3C2O1` (centres unmarked) is higher in “% Inhibition @ 10 uM” value: -1.77% for the first, 4.54% for the second.

Going from `C=CCOc1ccc(Cl)cc1C=C1C(=O)N(C)C(=O)N(C)C1=O` to `CC(=O)N1C=CN(C(C)=O)C(c2cn(C)c3ccccc23)C1c1cn(C)c2ccccc12` (centres unmarked), the “% Inhibition @ 10 uM” value rises from 5.94% to 7.8%.

Going from `Fc1ccccc1COc1ccc(Br)cc1CNCC1CCCO1` (centres unmarked) to `Cc1ccc(-c2nnc(NCc3ccccc3)c3ccccc23)cc1S(=O)(=O)NCc1cccnc1`, the “% Inhibition @ 10 uM” value falls from -3.45% to -5.85%.

For `CCN(CC)CCCOc1cccc(C)c1`, the “% Inhibition @ 10 uM” value was -4.08%.

Source: paper PMC6919601, “Identification of Plasmodium dipeptidyl aminopeptidase allosteric inhibitors by high throughput screening” (PLoS ONE, 2019)
